Test results reported in the supplement of paper PMC3334620.
Whole data set: some 33,000 sequences, median “E-score (-0.5 to 0.5)” near -0.013, cut for the highest 2% near 0.3. The list shows a part of the results.

molecular target: T1, Msn1 (UniProt P22148); assay: PBM E-score (8-mer binding enrichment) (E-score (-0.5 to 0.5)); higher = stronger / more preferred TF binding; most listed sequences are background and not binding sites; conditions: protein concentration: 200 nM; construct: GST-full length
T1 sequence: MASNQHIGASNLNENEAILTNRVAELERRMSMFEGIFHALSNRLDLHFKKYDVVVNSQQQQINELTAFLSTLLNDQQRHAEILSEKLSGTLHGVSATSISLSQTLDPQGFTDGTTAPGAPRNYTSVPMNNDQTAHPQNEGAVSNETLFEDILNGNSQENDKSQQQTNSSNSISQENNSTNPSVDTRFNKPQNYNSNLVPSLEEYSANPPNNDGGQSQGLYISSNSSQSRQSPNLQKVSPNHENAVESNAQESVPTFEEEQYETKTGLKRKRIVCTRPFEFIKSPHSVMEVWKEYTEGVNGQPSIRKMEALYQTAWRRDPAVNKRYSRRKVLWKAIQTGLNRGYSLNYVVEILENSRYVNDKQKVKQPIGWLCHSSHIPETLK
Method in brief: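 Full-length yeast transcription factors or their DNA-binding domains, GST-tagged and expressed with PURExpress, were applied at about 100-200 nM to universal all-10-mer Agilent arrays. These arrays had been made double-stranded by primer extension on fresh or once-stripped slides. Detection used fluorescent anti-GST, normalisation used masliner, and E-scores for ungapped eight-base words pooled with reverse complements came from the Universal PBM Analysis Suite.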

| Sequence | PBM E-score |
| --- | --- |
| ATCCGTGA | 0.0476 |
| ATCTAAGG | -0.0326 |
| ACCTAACG | -0.203 |
| GACCTCGA | 0.0777 |
| ACTAGATC | -0.129 |
| ATGCGTGG | -0.194 |
| TCGCTTAA | 0.133 |
| AAAGTGTA | 0.0246 |
| TTGAACAA | 0.0827 |
| AGACCGTA | -0.249 |
| CTCACTTA | -0.22 |
| ATGACGCG | 0.132 |
| CGCCCTAG | -0.174 |
| AACTGTCC | 0.241 |
| CACGTGGA | 0.138 |
| AGGCCCGA | 0.0495 |
| ATTTATCA | 0.118 |
| CTCGTAAA | 0.0013 |
| CATGTTTC | 0.222 |
| TGATTGAA | 0.134 |
| ACGAAAGA | 0.141 |
| GGAACGCA | -0.0264 |
| ATAACGAG | -0.0658 |
| GGACTCAA | 0.0633 |
| CACTTAGA | 0.123 |

| Sequence | PBM E-score |
| --- | --- |
| GTAACAGA | 0.207 |
| CGTTACAA | 0.111 |
| AGTTAGCG | 0.0173 |
| CCCGCGAC | 0.078 |
| GAGCGGCA | -0.231 |
| CAAGCCCC | -0.25 |
| ACTAGCTG | 0.0299 |
| AACCCAAA | 0.194 |
| CAGTGACA | 0.226 |
| ATATAAAT | 0.2 |
| ATATGCAG | -0.00169 |
| GCTGGTCA | 0.0362 |
| AGCAGTGA | 0.041 |
| AGGGTCGA | -0.119 |
| CCTCAAAG | -0.231 |
| ATGGTGGA | -0.16 |
| CCGTTTAG | -0.0318 |
| AACTGTCT | 0.0666 |
| AGTGAGTC | -0.0286 |
| ACCTCAGT | -0.0404 |
| ATTTAGAG | 0.0544 |
| AAGCGTTA | -0.13 |
| CAATTTGC | -0.00349 |
| GCCCTTCC | -0.238 |
| GACGCCAC | -0.165 |

| Sequence | PBM E-score |
| --- | --- |
| ATCGGACC | 0.0183 |
| ACCCCGCG | -0.215 |
| GTAGCAGA | 0.0373 |
| CCCCCAAC | -0.179 |
| AAGGAAGC | -0.261 |
| TAGAACCA | -0.0411 |
| GCAAGATA | 0.08 |
| CCTGTGGA | -0.336 |
| AGAGGTGC | -0.263 |
| CAGGCACA | -0.299 |
| CTAGATGA | -0.0897 |
| GAGGTTTA | -0.146 |
| GTAATAAC | -0.129 |
| GTGCTGGA | -0.0881 |
| ATGCCGGC | 0.0732 |
| GCGACCGC | -0.114 |
| ACGCTAAC | 0.0391 |
| CCTACCCC | -0.352 |
| ATCTTTCG | 0.0112 |
| AACAGTGG | -0.0992 |
| GATAGTAC | 0.154 |
| CTGCCGAC | -0.109 |
| CCCCGGAA | -0.218 |
| CAACCTGG | -0.0352 |
| ACATAAAA | 0.178 |

| Sequence | PBM E-score |
| --- | --- |
| AAATCAGA | 0.191 |
| ACTAACTC | -0.0494 |
| ACGTCGAT | 0.0102 |
| CCCCCACA | -0.238 |
| CCACGCCC | -0.289 |
| ACTTGTCT | 0.407 |
| AGACGGGA | -0.11 |
| ATTCTCCA | 0.0925 |
| TACCATGA | 0.0749 |
| AGGGCCCG | -0.206 |
| GTCTTTCA | -0.012 |
| ACCAATCA | 0.0321 |
| ACGTTTGC | 0.00697 |
| ACAGACAT | 0.399 |
| CAATTAGC | -0.0381 |
| CCGTCATA | 0.00889 |
| ACACTTTA | 0.0955 |
| CTGATAAG | 0.21 |
| AAGCGGAC | 0.014 |
| CGAGAAAC | -0.00756 |
| ATCGGGAG | -0.0192 |
| ATTCGCTG | 0.00671 |
| AACCGCTT | 0.051 |
| GACCGCGC | -0.164 |
| GCGAAGTA | -0.0188 |

| Sequence | PBM E-score |
| --- | --- |
| CACGGTGG | -0.0943 |
| ACCGGGGC | -0.2 |
| ACAATGAG | -0.106 |
| CCACGCTC | -0.283 |
| ACGGTGAC | -0.0603 |
| ATCGACAC | -0.0458 |
| CTTCACAA | -0.0814 |
| GTTTCTGA | 0.0636 |
| TGCTCGAA | -0.168 |
| CGCGAGCA | -0.0965 |
| ATAGAATG | 0.0417 |
| CCCTAAAC | -0.171 |
| ACCGTAAC | -0.0464 |
| AGACTAAC | 0.0305 |
| CGGACCAA | 0.256 |
| GGGAGTTA | -0.121 |
| CGGGTCTC | 0.0153 |
| AACCAGAT | 0.0243 |
| ATTTCTGA | -0.0224 |
| TACCACCA | -0.101 |
| GCATGGGC | -0.183 |
| CTAAACGC | 0.129 |
| AAGCCCCC | -0.41 |
| AGTTTTCG | 0.0416 |
| GGCCTGCA | -0.288 |

| Sequence | PBM E-score |
| --- | --- |
| ATACTTAG | 0.138 |
| GGGGCAAC | -0.191 |
| CCCTCATA | -0.117 |
| ATTCAACG | 0.149 |
| ATTGTAAA | 0.0714 |
| ACCTATAC | -0.00208 |
| ATGGACTC | 0.0714 |
| TATAGATA | 0.0139 |
| CTGGGTCA | -0.203 |
| GAGCTGTA | -0.045 |
| GGCGGCAC | -0.081 |
| CCCTGTTA | -0.113 |
| AGTGGTGG | -0.0804 |
| AAATAAAT | 0.155 |
| CATGTGCG | 0.177 |
| AGGGGCTA | -0.218 |
| CGTCACTC | -0.188 |
| TCACGCAA | 0.18 |
| CGTGCCAA | -0.2 |
| AGGGCTTA | -0.181 |
| ACCTTCCA | -0.119 |
| ACGACCTA | -0.0056 |
| ATGCAGTG | 0.0222 |
| AATTCGCT | 0.236 |
| AGCGTGAG | -0.246 |

| Sequence | PBM E-score |
| --- | --- |
| AATGTGGT | 0.00774 |
| TAACAAGA | -0.0257 |
| AATAACCC | 0.109 |
| CGGACTCA | 0.178 |
| GATATGAC | 0.0383 |
| GGACTCCC | -0.181 |
| AAATACAG | -0.0238 |
| TCTAGAAA | 0.0682 |
| TAATACGA | 0.0364 |
| CAATCCCC | -0.123 |
| AGACCTAA | -0.0999 |
| CTCTATAC | -0.124 |
| AGCGCTAA | -0.0425 |
| ACCGTTTA | -0.0287 |
| AAGTTAAG | -0.202 |
| ATTAGTGG | 0.0971 |
| AGTTCAAC | 0.0955 |
| CTCCAACA | -0.112 |
| CATACGAC | 0.08 |
| ATACTCAA | 0.0614 |
| CATTAGGC | -0.0348 |
| CATGCCGA | 0.147 |
